The full ranking holds about 33,000 sequences; the median of “E-score (-0.5 to 0.5)” is about -0.054, and the highest 2% start at about 0.39. This is one part of the list.
The sequences below were run against Ylr278c (UniProt Q05854) (assay: PBM E-score (8-mer binding enrichment) (E-score (-0.5 to 0.5)); higher = stronger / more preferred TF binding; most listed sequences are background and not binding sites). Details: protein concentration: 200 nM; construct: GST-DNA-binding domain.
Protocol: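 Universal 'all 10-mer' protein binding microarrays (Agilent AMADID 015681) probed with GST-tagged S. cerevisiae TFs (full-length or DBD) made by in vitro transcription/translation (PURExpress), about 100-200 nM. Bound TF was detected with fluorescent anti-GST. Each ungapped 8-mer (which stands for itself and its reverse complement) is scored by the PBM enrichment score (E-score), a modified Wilcoxon-Mann-Whitney statistic from -0.5 to +0.5, computed with the Universal PBM Analysis Suite. Scale: above 0.35 generally sequence-specific binding.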

Sequence | PBM E-score
GTTAAAAA | -0.11
ATCAATTC | 0.015
ACCAGCCT | -0.188
GCTTGTCC | 0.112
CCAGCGAG | -0.121
CTTGGAAA | -0.0475
CACGACCA | -0.274
CTACCTGC | 0.151
ATCCGAGA | 0.299
AGGTATAG | -0.185
GCGTAGGA | 0.0939
CTGAACAC | -0.0895
AGCCATCC | -0.0598
AGCTGGGA | -0.099
CACAGCCA | -0.209
AGGCCGTC | 0.0267
GAGTACCC | 0.0132
CGCCCAGC | 0.0441
GCAACGCC | 0.0378
ATATTAAG | -0.077
AAAACTTT | -0.088
AACGGCCA | 0.131
CACTGGTC | -0.265
AAATGACC | -0.00492
CGGTTACC | 0.149

Sequence | PBM E-score
GCGTCAAA | -0.11
ACACGCGT | 0.0184
AGTTGCTC | -0.108
CGAAACGC | 0.0471
AGTAGCGG | 0.217
GAATGCCA | -0.0408
GGCCTAAA | -0.0667
ACAGACAG | -0.0656
ACCAGTGG | -0.197
ACTGTCGA | -0.202
GACGTCGA | -0.089
ATCCTTTC | -0.137
GGCGGGGA | 0.315
CCGATCTA | 0.219
ACAGTGGT | -0.308
TCGCGCGA | 0.187
AGAACTAG | -0.232
ATTGATCC | 0.282
TAACGTTA | 0.0259
CGAATACC | 0.155
AGATCCAA | -0.0826
CAAGTGCG | 0.0989
CGCAGAAG | -0.0179
ATACCGGA | 0.405
AGGCCGGG | 0.258

Sequence | PBM E-score
AGATCTCC | 0.255
GGGTCGAA | -0.103
GCCTTGTA | -0.174
CTATCGCA | -0.0611
ATGTGACA | -0.204
CGTAGGTA | -0.0121
CCCAATCA | -0.0999
AAACTCAC | -0.0848
ACGACTGC | -0.202
GAGCCACA | -0.0707
CGCCAAAG | -0.0321
ATAGATTG | 0.0539
CTGTGCTA | -0.0973
TTGCCAAA | -0.0917
AACCCTGA | -0.0547
TACAAACA | -0.107
CATGCCTA | -0.261
CCCTCGCC | -0.246
ATCGATTG | -0.029
AACGCCAG | 0.017
GCAAGGGC | -0.211
CCGGCACC | 0.374
CTTATGCC | 0.0545
CACGCGCG | 0.119
CATCCCGG | 0.342

Sequence | PBM E-score
ACCTGTAG | -0.144
GTGGCAGA | -0.213
ATGTGCCG | 0.132
ACAAGAAG | 0.08
ATAAGAGG | 0.107
GAACATGA | -0.0476
CCGCTTAC | 0.0207
CGAAATTA | 0.136
CCGTGACA | 0.238
AGGCTTTG | -0.154
CGGGTGGC | 0.148
GATCTGTA | 0.0224
AGGTCATG | -0.141
GTATCTGA | -0.143
AGGTCAGA | -0.108
ATGCTCGG | 0.169
TTAGTCAA | -0.189
CTCCCGGC | 0.356
AAACGTCT | -0.269
CGTTGTCA | -0.0949
AAGTGGAT | -0.0978
CCGAGGCC | 0.245
CAACTGTC | -0.136
ATACTTCC | 0.109
GACTGGGC | -0.179

Sequence | PBM E-score
GAATACTC | 0.0192
ATACGAGA | -0.327
ACGTGGGG | -0.0524
CGATCTGC | 0.19
GCGAGGTA | -0.105
GTCGATGA | -0.0803
AGTCAGCA | -0.285
ACAGGGGA | -0.2
CCTTGTCC | 0.131
TACGTGGA | 0.143
CGTTGAAG | -0.201
CTCTGCTC | -0.114
AGCTTAAT | 0.0164
CCTCTAGA | -0.203
ATACTTGC | -0.253
GCGAGTAC | 0.00812
AAATGAAG | -0.0897
AACGCGCA | -0.0645
ACTGCTGA | -0.237
ACAAACCA | -0.244
ATACCCTG | -0.08
AGAATAAG | -0.0356
CCTGTAGA | -0.111
GCCATCTA | -0.111
AGATCAAA | 0.0214

Sequence | PBM E-score
CTAAGCCA | -0.24
CTGAGTAA | -0.228
ATAATAAC | -0.0184
ACTCCACG | 0.0682
AGTCCCAG | -0.0903
AAAAAATT | 0.0162
CCGTTAAC | 0.178
GGGCCGCA | 0.257
AGTTGGAC | -0.146
CTCCTTGA | -0.11
ACCAAGCT | -0.287
CATGTTGG | -0.227
GGCAATCA | 0.122
CACCAGGG | -0.298
ACGAGTAT | -0.192
GCGGAGGA | 0.406
AAACGGAA | 0.306
ACGCGTGG | 0.0294
CCAGACGC | -0.184
CAACTAAC | 0.0622
CCTATGGA | -0.124
CCTGGTGC | -0.136
AACCTAAC | 0.056
AAGGTGGG | -0.161
TGCCCAAA | -0.203

Sequence | PBM E-score
CCAGATAA | -0.0845
GGCATTTA | 0.0632
ATGTGTAC | -0.196
AGCACTAC | -0.291
ATGAGCTG | -0.0713
ACCCTGCG | -0.0187
AAGTGCCT | -0.328
CAACCGGC | 0.27
ATTAGCTA | -0.108
ATTCGCCC | 0.156
ATAGCGCC | 0.0683
CAAGCAGA | -0.121
AGTACGAG | 0.104
AACGGCGT | 0.123
CGACTTAG | -0.168
GCTAACTA | 0.0503
GCCCCTTA | -0.0129
ACTCTTCG | -0.0141
GCCCTAAA | -0.115
ACCAAACG | -0.147
GAGTTTAC | 0.122
ACTCCAGT | -0.00604
CTACTGTC | -0.123
ACTAACAT | -0.105
GAGGTCCC | 0.0277

Sequence | PBM E-score
AATTATCG | 0.104
TGCGCACA | 0.143
TACTAGTA | -0.138
ATATTACC | -0.0424
GAGTTCGA | -0.0113
AATCGGGG | 0.338
AGAAGAAA | -0.0189
AATATAGC | -0.164
CGCGGGGC | 0.302
GCTAGCAA | -0.0145
CAGCCGCC | 0.283
ACTAGAGC | -0.128
ACATAGGA | -0.154
GCTCTCGA | -0.201
CCGACTCA | 0.199
CAAGAGTA | -0.128
GAGACCAC | -0.211
CGATCGGA | 0.44
AGTTTGTA | 0.0205
CGATTACG | -0.0311
CGTATTCA | -0.0647
ATATCGAC | 0.0774
ATACCAGC | -0.104
AGGTTGAT | -0.185
ATTTGAAG | 0.102

Sequence | PBM E-score
GACCTACC | 0.00069
TATAGAGA | -0.354
CGCGACTC | 0.104
CGTGACAC | 0.0891
AGCAGATG | -0.335
CCATTTCA | -0.127
AATCGAAA | -0.14
CTCATGTA | -0.0184
GCAACGAC | -0.0348
AAAGCGGG | 0.112
CCGCAAAA | 0.242
ATTAGACC | -0.134
GTGGGAAA | -0.0315
CAACGACC | -0.0111
AGGACCCC | 0.06
CGGGCCCA | 0.091
CCGATTCA | 0.0742
CCGGGTAC | 0.265
CTCACCCA | -0.0261
GACTATCC | 0.068
ATTAGTAG | -0.119
CTCCCATC | 0.0174
GCCACGGA | 0.22
AACAACTT | -0.0233
CAGAGACA | -0.195

Sequence | PBM E-score
ACACCTCT | -0.119
ACAACTTC | 0.0889
CGGCCTCA | 0.175
GAATTAGA | -0.00804
ACACTTTG | -0.077
GCTGCAAA | -0.172
TTATGAAA | -0.0429
AGCTCGTC | -0.0504
AATCGAAG | -0.0454
CACTCCGG | 0.46
CAATCCTG | -0.108
ATGGCTGA | -0.344
CGCCGGAC | 0.447
ATTTGCGG | 0.35
CCGATGCC | 0.357
TAGCGAGA | -0.0935
AACCCTCT | -0.241
AGCCTAGC | 0.0291
AGACCCGA | 0.182
CCGCGTCA | -0.0131
TGCTACCA | -0.274
CTACACTC | -0.143
ACCTCTTG | 0.0564
TAGCACGA | -0.17
AACCCGAA | 0.159

Sequence | PBM E-score
AGGCTCAG | -0.354
CCTAGGTA | -0.14
GGCGGAAA | 0.328
ATACCCCC | 0.0218
CGGGAAAC | 0.297
ACTCTGAG | -0.247
CGGTCGTC | 0.091
ACCATGGT | -0.444
CCCCTTTA | -0.277
CCCCCACC | -0.194
ATACTCTC | 0.0286
CACGGGAA | 0.0802
GAGAACCA | 0.0202
CCCAGACG | -0.203
AGGGCACT | -0.272
ATCTCTTG | -0.163
CTCCCATA | -0.152
GCTACGCC | -0.0899
GAGGGAAA | -0.26
ATTGCAGA | -0.0988
CCGTAACC | 0.221
CACCCTGG | -0.197
ACAGCCAC | -0.0864
CCTCATGC | -0.234
AAATTCAT | -0.0822

Sequence | PBM E-score
ATCGTCCG | 0.327
ACTTCATG | -0.172
CACCCGTA | 0.0195
AGAGGAGC | -0.277
CCGCGAAC | 0.257
AACAGTTA | 0.095
ACGCGCCG | 0.214
AATCCATG | -0.0812
GACCAAAC | -0.0647
TAGTCCGA | 0.415
GCTCAGCA | -0.181
AAGTATTA | -0.173
ACACCCGC | 0.108
ACCCCTAC | -0.211
AATAGGTG | -0.164
CTTGGACA | -0.134
AGCCCTAT | -0.156
CTTACACC | -0.0303
AAAAACAT | -0.153
GAAACTTA | 0.111
CGTAGAAA | -0.142
AGTTTTTA | -0.238
AGGAAGCA | -0.14
AGATTCAT | -0.21
CAGTCGCC | -0.0183

Sequence | PBM E-score
TGAACCCA | -0.0431
CCTGAGGA | -0.069
CAAGTGGA | -0.151
AAACTTTA | 0.0301
AGCCGGAT | 0.404
CACAACAA | -0.0681
AATCTGGT | 0.0573
CGTACTAC | 0.0532
ATAGGCTG | -0.272
AGTCAGGG | -0.314
AGCCTTGC | -0.137
ACTATGTC | -0.0396
GCTTCGAC | -0.161
ACGTAGGG | -0.204
CGAGCAGC | -0.0223
GAGGATCA | -0.0641
GTGGTTGA | -0.195
AGATGGAA | -0.0221
AATTTAGT | 0.087
TGCGGCCA | 0.00758
CCAAATGG | -0.0754
AAGGCGTA | -0.257
CGGTTCGC | 0.131
TCGGTGAA | 0.207
AAGCTTAC | -0.225

Sequence | PBM E-score
TAACATGA | -0.167
AAAACCTC | 0.11
CGCCCTGC | 0.0947
GAGGGAGA | -0.145
ATTAAGCA | -0.0912
CAGTGCTC | -0.197
CGAGGTTA | 0.0177
CCTTTTTA | -0.0536
TGAGGCCA | -0.19
ACTGTGCA | -0.305
AGCCTACG | -0.0888
CATTGGAC | -0.0342
CGTAAATC | 0.164
AAGCGTAC | -0.246
ATAGGATG | -0.0679
AATCTATA | -0.082
CGGGGTGA | 0.247
AGCGAGGC | -0.211
CACGTACA | -0.177
